Source: the supplement of paper PMC12632987
The full ranking holds about 4,500 sequences; the median of “median log2 fold change of GCK-ALFA target abundance (FLAG IP / Myc IP barcode read proportion)” is about 0.078, and the lowest 2% start at about -0.6. This is one part of the list.

B1: GBRAP_11_2673 (protein)
chain: MKEKLLEAAELAEKAAKLVEELIKEGVDNEELLKELKKLLEELKKLAKEYLSKALQKDVEVAEELFKELLEDEENRLEYAEQLLAALRVLEGNLLLEADE
B2: GBRAP_57_6469 (protein)
chain: MERLEKVEEHTERALALIDARAPAEEVLAEFRKALEELSEETLRDVALIVDPEFDYEASREEAIAHLLALLREALEAGDYARARRIVETVDGQAEMEYVE
B3: GBRAP_35_5546 (protein)
chain: DSDRETVEMLLNTMEDIVLALPDVSPEEQLTLAEHLIDLAELAIEEKPKDKELLKRLIEALEEAIKLVEASDLPEEKREELIKRLEEAKEEAEKLLKEVE
B4: GBRAP_95_7032 (protein)
chain: EDDKLAVESDIEVAIAAAELGDEDAAARALRRALEGLKKAGKVKLDEELLKETIKVILEVGVKKLPKEEVLELLELLKESAETEEVKELAEKAIEEVKKR
B5: GBRAP_52_6194 (protein)
chain: MRAELRAKAEEIVALVKAGREAEARAMMRELARTLSEEELRLLGEEFAELAAEAAPEDFDAVFRAAEMFADVLLEEGHDEVLADDLLARVAAALYKRELA
B6: GBRAP_57_6456 (protein)
chain: MSRLEKIEEAAKAAHKALEEGKPVEEVLKEVRKMLELMDKETLLDVALILDPNTDMDLSKEELIEYIVEIVRRAAEEEGPEAVRAAVDLIEGQAEMSAVE
B7: GBRAP_128_3162 (protein)
chain: AVEEAKKYTKELMEKIKNSSLEEVKKITEEIMEKMKESTDEEQEAMADVILEELPKLSKEKLEIIADVFEKLRPELSPFGQEQVNDVLVAALNEAEELEE
B8: GBRAP_195_5414 (protein)
chain: MKVVGVAVTASADDTPEQIEAKMLEAVRAAIAAHGGDVVVALRVHPSHSLAEAEAVAERVRAATADVRVTVEIFRDESLTEEQLQRFAEMEALNEELERE
B9: GBRAP_83_6959 (protein)
chain: MITVVATSDPASIRSAVDAAIDLHKEEGEEVDLEILLTAASAATAVAEVGRLIDAGVEADITLVADEADAAAARAAAAAIRARAAAAGRNVRVELVILPA
B10: GBRAP_125_3030 (protein)
chain: HMEELAEDLGLIARALGFSEGDVALLRENALAHGIKGAMIALALAEGDEELAELLEKLTEEEVAEVVRRVAEELRRNPELTPEEVKELILEKAKEAVEKS
B11: GBRAP_160_4757 (protein)
chain: KEELKKLKKEIEEIFEEHLKILKEVPASEAPTVVRGAMGEVLMTVMSSDAASDELEEKIGEILDEAEAEVEANKDKPVEYHIEVLKEAKEKILKLIEEEI
B12: GBRAP_74_6514 (protein)
chain: MAALLAALEAAAAAGDAAAVAALAREIIATGSLADIERAARIVVAFVEKNIDTLTEEEKELLADVLAELADELMDRGGDSEVITAVATAAYTLEKEIEAA
B13: GBRAP_55_6430 (protein)
chain: SEDDEDTELAAETLLELAAANVDDPAALQAYVDRLMEVAKDKPVTATLSPVPLEEAERLYEKLTAALTAAAAKHGLDVKVELERDEETGTASIVVTITPK
B14: GBRAP_160_4119 (protein)
chain: NEKLLKTAEDNAKDFEETIKEIEDLSPEEAGTLAIVTLGEAILDASEHDGAFEELEEKAEALEDALRATAATDPARLKEASLAALKEARDAFEKKAKELK
B15: GBRAP_39_5681 (protein)
chain: EEKEELELEVSYLEAIAAKYLYETGLSFEEALKEAKEILEKYAKENPELKELIEELIKLAEEKGEEAQLVLIGIAEKIKKGTPKEEIKKDIENAIKYFKS
B16: GBRAP_160_4228 (protein)
chain: METVEKIVEIFRETFLEALELIEGESEEERRVILDVAVGEIILEVEEIEEATDEMVEIVDERAEKLAERLLAARDASREERRALVEEEAKKLREELEKLA
B17: GBRAP_128_3593 (protein)
chain: SSEEVKKYVKEKVEAMKKADKETRKKIADELFEKILTLSDEEQEVAFETLEELLPELSAEDLEILADALRKHRPKFTPEGANLAADLEVEALNEAEELEE
B18: GBRAP_125_3092 (protein)
chain: AAAALAADLAALARALGFSDEDAAELAALAAASSVRQALYALFAAEGYEEAADLVAQLTEEEAAAVLAALAAWLAAHPDASREEVVAQVRALAREALAAR
B19: GBRAP_184_5315 (protein)
chain: EVIRRFITVETKEEAEKKLKEIKEEIKKSGKKYTVYIEVKNPTKELIDTVFEEIKKMKEEGVDADFILVVEEPVDEEMEDYIVEKAKEAGARAVIALPEE
B20: GBRAP_42_5725 (protein)
chain: KHKITLELYVETLEELREAVKIVEELNEKYLKEHGIIIELIVTAPEEAKEEAEKVNAKFAEKAKQATSESDWVVVAASAKEVEKAIEAAVDLALEEIKEK
B21: GBRAP_117_2593 (protein)
chain: SSKEEEALKRLKAAVERVAAVVAEQATLSPEEAAAALEAAKAELKELVKEVIEELGVEKALELAEEATLDADAETYFLVMSTVEEAVQEYKEEKEKEKLE
B22: GBRAP_160_4412 (protein)
chain: EELIKEVEELFEELRELVLELLEEGEREEAIAAVRVGAGEILLYVDESEEVSDEAEEEVDEVLDELVETVEENRDMSPEEVEELIEEAREKVIEILKKHL
B23: GBRAP_160_4310 (protein)
chain: KEELEALKKEVKEIFEEAKKLIEGETKEQQKAIVKVALGEVILLAFESPAITEEAEEKIAEIADEAIATLDANPDLTTEEIKKLLEEAEKKILELIEKLK
B24: GBRAP_184_5282 (protein)
chain: TVRHVEIEAETAAEAIAALRKAAAEARAAGAKLRLTILLKNADIDGILALFALLAELRAAGVIESAVLGIENEKTEEEIDTILAAADAAGVRVVIAIPDE
B25: GBRAP_125_3101 (protein)
chain: MEEELLEALKRFALALGFSEEDAEEAAELAKKFSLKQTLIALLLAEGEEELAELVEKLTEEEAKEVLLKLDEYLKKNPNASKEEVLKKFKELVEEALKAS
B26: GBRAP_160_4746 (protein)
chain: SEELKKLKKEIEEIFEEGIEILKEVPKEEALTVVRGTMGEVLMEVFSSDAASDELEEEIGKILDEAEKKAEENKNGSVEEYIKILEDARKKIEELLNKKI
B27: GBRAP_160_4471 (protein)
chain: KEKVEAAVEDLRRSVDEELERTADESPEQIATAAAVEVGSHLLEWSEAGTITDEQEDILAKAEDEILALGRTEPDASPAETIERIREIVDAAAAAILAAA
B28: GBRAP_184_5061 (protein)
chain: KVYERTIEVRNVEEARAKMAALAEEVKDHKGDLVVMLKMERFDREIVRAVLEGLGAIKKAGYVSSVTLGIDAETTEEEADFAVALADEQGVNVTLALSEE
B29: GBRAP_160_4379 (protein)
chain: SEELKELKEEVKKLKEEFKEEAKDLSTAEVRTLAIGVLSEIAALVWSNEAVSEETKDKIMKIIDDAIAKIRANADASPEEIVAIVTEAFDKIIELIEKEE

biological target: GABARAP, O95166; assay: median log2 fold change of GCK-ALFA target abundance (FLAG IP / Myc IP barcode read proportion) (log2 ratio); each designed protein is fused to an ALFA-tag nanobody in HEK293 cells to bring the named protein to FLAG-tagged glucokinase (GCK); Myc marks an untargeted standard; higher = target protein stabilised (more abundant); settings: target protein: 3xFLAG-MCP-GCK-ALFA reporter; HEK293 landing pad (RPLP)
Sequence (O95166 whole entry, the tested form may be a part): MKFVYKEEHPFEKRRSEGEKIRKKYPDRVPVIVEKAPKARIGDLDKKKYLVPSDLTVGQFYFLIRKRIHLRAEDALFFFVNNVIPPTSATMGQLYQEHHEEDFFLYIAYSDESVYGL
Summary of the method: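 Binders fused to an ALFA nanobody were recombined as a library into HEK293 landing-pad cells, which were induced with 2 μg mL^−1 doxycycline and then transfected to express a FLAG-tagged target and a Myc-tagged standard. After 48 h, circular RNA barcodes recovered by anti-FLAG and anti-Myc immunoprecipitation of lysates were reverse transcribed, amplified and sequenced. Each binder's target abundance is the median log2 ratio of FLAG to Myc barcode read proportions, from barcodes present at ≥10^−7 in both replicates, binders carrying ≥3 barcodes per replicate, a 10^−6 pseudocount and pooled replicates.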

Binder	median log2 fold change
B1	0.0764
B2	0.297
B3	-0.0329
B4	0.196
B5	0.217
B6	-0.325
B7	0.232
B8	0.283
B9	0.0503
B10	0.0666
B11	0.0549
B12	0.116
B13	0.215
B14	0.263
B15	-0.00985
B16	-0.393
B17	-0.0275
B18	0.011
B19	0.243
B20	-0.454
B21	0.369
B22	-0.257
B23	-0.615
B24	-0.157
B25	-0.382
B26	-0.196
B27	0.147
B28	0.317
B29	0.234
